Results on 2 molecules are retold here after patent US20250195501A1, “CELL ENTRY-MODULATING AGENTS AND USES THEREFOR” (priority 2020, published 2025).

This assay concerns the target recombinant human ACE2 (Homo sapiens, UniProt Q9BYF1). Format: binding. Further details: purchased R&D Systems and Assay Matrix. As to conditions: SPR, Biacore S200, 25° C., PBS, single cycle kinetics, immobilized human ACE2.

By Kd is commonly meant the concentration at which binding is half-saturated. For the molecule `CCc1c2c(nc3ccc(OC(=O)N4CCC(N5CCCCC5)CC4)cc13)-c1cc3c(c(=O)n1C2)COC(=O)[C@]3(O)CC` [Irinotecan], the equilibrium dissociation constant (Kd) was determined as 825 ± 112 nM.

As to `CC1(C)CCC(CN2CCN(c3ccc(C(=O)NS(=O)(=O)c4ccc(NCC5CCOCC5)c([N+](=O)[O-])c4)c(Oc4cnc5[nH]ccc5c4)c3)CC2)=C(c2ccc(Cl)cc2)C1` [Venetoclax], the dissociation constant Kd stood at 291 ± 31.1 nM.
